PubChem BioAssay AID360 (National Center for Advancing Translational Sciences (NCATS), 2006)
In all, about 48,000 compounds went through this assay and about 550 (1.1%) were called active. About 4% were inconclusive and are not listed. Cut-off read from the data, not from the text of the source: active = potency below about 15 µM; inconclusive = mostly about 16 µM to 33 µM; inactive = weaker than that. The list shows a part of the results.

The molecules below were run against Lysosomal acid glucosylceramidase (Homo sapiens) (UniProt P04062) (assay: Glucocerebrosidase). Settings: purified enzyme, resorufin glucoside fluorescence (screen aimed at inhibitors), 20 min.
Chain of UniProt P04062 (P04062 whole entry, looked up): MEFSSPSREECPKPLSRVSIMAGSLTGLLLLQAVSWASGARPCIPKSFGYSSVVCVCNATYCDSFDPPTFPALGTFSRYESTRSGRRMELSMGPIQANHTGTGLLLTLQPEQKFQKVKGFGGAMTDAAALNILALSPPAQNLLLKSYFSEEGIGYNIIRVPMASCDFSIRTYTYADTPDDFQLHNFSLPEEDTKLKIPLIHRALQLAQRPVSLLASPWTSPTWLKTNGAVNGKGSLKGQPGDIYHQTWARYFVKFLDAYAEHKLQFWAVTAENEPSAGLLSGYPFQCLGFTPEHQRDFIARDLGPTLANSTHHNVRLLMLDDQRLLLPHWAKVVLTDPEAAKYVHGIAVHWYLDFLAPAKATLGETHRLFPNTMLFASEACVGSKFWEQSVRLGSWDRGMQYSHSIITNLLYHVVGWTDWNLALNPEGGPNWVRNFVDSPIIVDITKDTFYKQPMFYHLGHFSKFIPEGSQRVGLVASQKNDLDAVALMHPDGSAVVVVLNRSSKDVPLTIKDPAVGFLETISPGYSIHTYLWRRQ
Summary of the method: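 Compounds titrated against 0.2 nM normal enzyme, 30 uM resorufin beta-D-glucopyranoside substrate, citrate/phosphate buffer with taurocholate and tween-20, pH 5.9. Reaction ran 20 min at room temperature; fluorescence (Ex 548/Em 600) gave AC50.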
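Note: the screen sought inhibitors.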
Potency is the fitted concentration of half-maximal effect.

Potency, inactive:
CC(C)N(Cc1nc(-c2ccccc2)no1)C(=O)CCCN1C(=O)c2ccccc2C1=O > 76.9 µM
NS(=O)(=O)c1ccc(CCNC(=O)CNC(=O)C2CCCCC2)cc1 > 76.9 µM
CCCCN1C(=O)c2ccc(C(=O)Nc3c(N)n(CCCC)c(=O)n(C)c3=O)cc2C1=O > 76.9 µM
Cc1oc(-c2ccc(F)cc2)cc1-c1nn2c(-c3ccco3)nnc2s1 > 76.9 µM
CC1CCc2sc3ncn4nc(C(=O)NCc5ccco5)nc4c3c2C1 (stereo unspecified) > 76.9 µM
COCCNC(=O)C1c2cc(OC)c(OC)cc2C(=O)N(C)C1c1cccnc1 (stereo unspecified) > 76.9 µM
CC1CCN(CCNC(=O)C2CCCN(S(=O)(=O)c3cccc4nonc34)C2)CC1 (stereo unspecified) > 76.9 µM
Cc1oc2cc3c(C(=O)OCCN(C)C)c(C)oc3cc2c1C(=O)OCCN(C)C > 76.9 µM
O=C(CSc1nc2ccccc2o1)Nc1ccccc1N1CCCCCC1 > 76.9 µM
C=CCNC(=O)NC(=O)COC(=O)COc1ccc(Br)cc1F > 76.9 µM
CCCN(CCC)CCCNS(=O)(=O)c1cc(Br)cc2c1N(C(C)=O)CC2 > 76.9 µM
CCOc1nc(C)ccc1-c1noc(C)n1 > 76.9 µM
O=C(COC(=O)c1ccco1)Nc1ccc(Br)cc1 > 76.9 µM
CCCC(=O)Nc1ccc(NC(=O)c2cccc(OC)c2)nc1 > 76.9 µM
CC(=O)c1cccc(NC(=O)Nc2c(C)nn(C)c2C)c1 > 76.9 µM
Cc1ccc(OCC(O)CN2CCN(CC(O)COC(C)C)CC2)c(C(C)(C)C)c1 (stereo unspecified) > 76.9 µM
CCc1ccc(-c2nc(CN3CCC(C(=O)N4CCN(c5ccccn5)CC4)CC3)c(C)o2)cc1 > 76.9 µM
COc1cc(NS(=O)(=O)c2cc(C)ccc2OC)c(OC)cc1Cl > 76.9 µM
CCCCn1c(CN2CCN(CCO)CC2)nc2ccccc21 > 76.9 µM
CCN(CC)S(=O)(=O)c1ccc2oc(C(=O)NCC3COc4ccccc4O3)c(C)c2c1 (stereo unspecified) > 76.9 µM
Cc1onc(-c2ccccc2)c1C(=O)NCC1CCCO1 (stereo unspecified) > 76.9 µM
CCOc1ccc2[nH]cc(C(=O)N3CCN(CC)CC3)c(=O)c2c1 > 76.9 µM
C/C(N)=C(/C#N)C(=O)CN1CCCCC1 > 76.9 µM
O=c1c2cc3c(cc2[nH]c(=S)n1CCN1CCOCC1)OCO3 > 76.9 µM
O=C(NCc1ccc2c(c1)OCO2)C1CCCN1C(=O)Nc1ccccc1 (stereo unspecified) > 76.9 µM
COc1ccc(Cl)cc1-c1n[nH]c(=S)o1 > 76.9 µM
CC(=O)c1c(C)n([O-])c2ccc(C)cc2[n+]1=O > 76.9 µM
COc1cccc(NC(=O)c2oc3ccccc3c2NC(=O)C2CC2)c1 > 76.9 µM
CC1=C(C(=O)Nc2ccccc2)C(c2ccc(N(C)C)cc2)NC(=O)N1 (stereo unspecified) > 76.9 µM
O=C(CSc1ncccc1-c1nc2ccccc2[nH]1)N1CCCCC1 > 76.9 µM
O=C1c2ccccc2C(=O)N1CCCc1nc2ccccc2c(=O)n1CCCn1ccnc1 > 76.9 µM
c1cncc(-c2nnc(-c3cccs3)o2)c1 > 76.9 µM
CCN1CCN(C(=O)c2cnn3c(C(F)F)cc(-c4ccc(C)cc4)nc23)CC1 > 76.9 µM
CN(C)C(=O)C1(c2ccccc2)CCN(S(=O)(=O)c2ccccc2)CC1 > 76.9 µM
CC(=O)N1C(=O)c2cccc3cccc(c23)C(=O)N1C(C)=O > 76.9 µM
O=C(CSc1nnc(-c2cccs2)n1-c1ccccc1)N1CCOCC1 > 76.9 µM
O=C(Nc1c(F)cc(F)cc1Br)c1cc2nc(C(F)F)cc(C(F)F)n2n1 > 76.9 µM
Cn1c(=O)c2c(ncn2CC(=O)Nc2nc(-c3ccccc3Cl)cs2)n(C)c1=O > 76.9 µM
COc1ccc(C(=O)Cn2nnc(-c3ccc(N4CCOCC4)cc3)n2)cc1OC > 76.9 µM
CS(=O)(=O)N(CC(=O)N1CCCC1)c1ccc(OCc2ccccc2)cc1 > 76.9 µM
c1ccc(-n2cnc3cc(NCc4ccccn4)ccc32)cc1 > 76.9 µM
Cc1cc(=O)[nH]c(SC/C=C/c2ccccc2)n1 > 76.9 µM
Cc1ccc(-n2c(-c3ccncc3)nnc2-c2cccs2)cc1 > 76.9 µM
Cc1cc(C)n(-c2nc3sc4c(c3c3nnc(SC(C)C)n23)CC(C)(C)OC4)n1 > 76.9 µM
COC(=O)C(C#N)C(c1cccnc1)c1c(C)[nH][nH]c1=O (stereo unspecified) > 76.9 µM
O=C(c1cccc(S(=O)(=O)N2CCOCC2)c1)N1CCCc2ccccc21 > 76.9 µM
Cc1noc(C)c1CSCC(=O)OCc1nc2ccccc2c(=O)n1CC#N > 76.9 µM
O=C(O)C1CC=CCC1C(=O)NC12CC3CC(CC(C3)C1)C2 (stereo unspecified) > 76.9 µM
Cc1nc2nc(CSc3nnc(C)s3)cc(=O)n2[nH]1 > 76.9 µM
COc1ccc(S(=O)(=O)NCCC(=O)NC(C)c2ccccc2)cc1 (stereo unspecified) > 76.9 µM
O=C(NCc1cccnc1)c1cc(S(=O)(=O)N2CCCCC2)ccc1Cl > 76.9 µM
O=C(NCc1ccco1)C(c1cccnc1)N(C(=O)Cn1nnc2ccccc21)c1ccc(F)cc1 (stereo unspecified) > 76.9 µM
CC1CCCCC1NC(=O)CN1CCC(O)(c2ccc(F)cc2)CC1 (stereo unspecified) > 76.9 µM
Cn1c(=O)c2c(nc(SCC(=O)OCc3ccccc3)n2C)n(C)c1=O > 76.9 µM
O=C1CN(C(=O)c2ccco2)C(c2ccc(F)cc2)c2cc(Cl)ccc2N1 (stereo unspecified) > 76.9 µM
CCCCNC(=O)c1cccc(C(=O)NCCCC)c1 > 76.9 µM
